Experimental data: the RNAGym collection of RNA variant scans (doi:10.7554/elife.90254)
The source gives no read counts; variants with many changes may rest on few reads.

B1: LINE1-full (parent)
chain: UACGUAGGUGGUUUUCCCCUGAUAGUGCUAAGGGGGCCUGGAAGUUUGGACUGGGCAGAGCUCAACACAGCGUGGCAAAGUGGCUGUGGCUAGACUGCCUCUCUGGAUUCCUCGUCACUCAGCAGGGCAUCUCUGAGAGAAAUGCC

Variants of: B1
Assay: self-cleavage, relative activity (ratio to wild type); higher = more cleavage; in vitro, sequencing; the parent is a self-cleaving ribozyme

Variant	self-cleavage
U45C A140G A141U	0.24
U45C C63U A77G A94U G105A	0.09
U45C C63U A129G	0.26
U45C C71A A117U	0.25
U45C C71A U73C A79G	0.47
U45C C71U A124U	0.8
U45C C113A A129G	1.55
U45C G49A U62C U134C	0.08
U45C G49C A77G A79U U85A A121G	0
U45C G49U A57U A67G	0.15
U45C G74A A77G U104A A141G	1.75
U45C G74A U85A U130A A141G	0.02
U45C G75C A78U A141G	1.67
U45C G82U U119C	2.19
U45C G83A U87G A121U	0.03
U45C G105A U109C	1.49
U45C G105A U130C A142G	1.74
U45C G106A U109C	0.71
U45C G135A A142G	1.39
U45C U46A A59G G74A	0.03
U45C U46A U91A U109C U112C U115A U119A	0.56

Variant	self-cleavage
U45C U46C U73A A129U	2.72
U45C U46C U112A	1.52
U45C U47A A69C U91A	0.12
U45C U47A G88A	0.03
U45C U47C A69U A94C	0
U45C U47C A141G	2.3
U45C U52A A92G U109A A129U	0.09
U45C U52C A57G	0
U45C U52C A140G	1.15
U45C U62A U112C	0.07
U45C U62C G86A	0.08
U45C U62C U112C U134C	0
U45C U73A A107G U130A	1.79
U45C U73A C110U A117G U130C A141G	1.93
U45C U73C A79G	1.31
U45C U73G U109C	0
U45C U81A A94C U119G	0
U45C U81A U102C	1.93
U45C U85A A94G	0.31
U45C U85A A138G	0
U45C U85A C90A U134A A140G	0.05

Variant	self-cleavage
U45C U85C A141C	0.34
U45C U87A U108C	0.04
U45C U87C U134A	0
U45C U91A A141G	0.61
U45C U96C U132C A138G	0
U45C U100A A136G	0.66
U45C U100A A138G	0.93
U45C U100C U109C	1.7
U45C U102C C103A	2.3
U45C U104A U112G A140G	2.76
U45C U108A A117C U132A	2.16
U45C U112C A138G	1.08
U45C U112C A141C	1.04
U45C U112C U119C	0
U45G A65G U102C	0.2
U45G A67G A129G	0.5
U45G A69G A94U	0.04
U45G A121U U130C A142G	1.81
U45G U62C A64G A67U U134C	0
U45G U73A U132A	1.29
U45G U73C A142G	1.08

Variant	self-cleavage
U45G U81A U134G	1.83
U46A A50G U100C	0
U46A A57G A121G	0.91
U46A A59G U104C	0.36
U46A A64G A140G	0.2
U46A A65G U96A U132C	0
U46A A67G C99U	0.2
U46A A67G U87A U130C A142U	0.07
U46A A69G A94G U130C	0
U46A A69G U132C	0.49
U46A A78G U143C	1.05
U46A A79G G88A U109C A140G A141G	0.05
U46A A107G C113U	1.62
U46A A136G C145U	0.9
U46A A140G A141G	1.08
U46A C66U G70U A121U A142G	0.01
U46A C116U A141G	1.52
U46A C118U C120U	1.14
U46A G48A A64G U91C U112C	0.03
U46A G48A U62C G75C U85A	0.01
U46A G55A U100C A138G	0.11
